In paper PMC6602471:
Only a part is listed here, and it is no random draw. At the low end of the ranking, values are background and their order means little.

Target: RUNX1 (UniProt Q01196)
Test: custom PBM
Conditions: custom protein-binding microarray; buffer, salt, pH and temperature not stated; high values mean tight binding; double strand, one strand shown

UniProt Q01196, sequence (Q01196 whole entry): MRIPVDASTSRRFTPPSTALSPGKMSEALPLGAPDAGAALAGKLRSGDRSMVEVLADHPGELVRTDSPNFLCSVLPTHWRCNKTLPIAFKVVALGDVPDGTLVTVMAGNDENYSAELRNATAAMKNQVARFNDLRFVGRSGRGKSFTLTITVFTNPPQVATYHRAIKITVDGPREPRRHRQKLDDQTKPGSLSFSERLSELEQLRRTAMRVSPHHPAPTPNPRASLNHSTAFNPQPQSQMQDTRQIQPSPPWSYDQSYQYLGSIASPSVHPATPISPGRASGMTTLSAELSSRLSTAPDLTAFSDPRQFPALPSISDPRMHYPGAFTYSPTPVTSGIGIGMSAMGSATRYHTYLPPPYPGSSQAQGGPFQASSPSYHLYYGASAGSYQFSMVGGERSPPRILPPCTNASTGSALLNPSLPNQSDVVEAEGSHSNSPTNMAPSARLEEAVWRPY

Sequence | binding signal (log fluorescence intensity)
CGCGCACTCTGTAGTTGCGCACATACGCACACATACACATACACACATACACATACGCAC | 10.9
CGCGCACTCTATGGTTGCGCACATACGCACACATACACATACACACATACACATACGCAC | 10.9
GCATACGGCTTACGTCAGCCACATACGCACACATACACATACACACATACACATACGCAC | 10.9
GCATACGGCTGACCTCAGCCACATACGCACACATACACATACACACATACACATACGCAC | 11
GCGCACATTTCCCGTAATTCATACACGCACACATACACATACACACATACACATACGCAC | 10.9
CGCGCACTTTGTGGTTGCGCACATACGCACACATACACATACACACATACACATACGCAC | 11.6
GCGCACGTTTCCCGTAAATCATACACGCACACATACACATACACACATACACATACGCAC | 10.9
GCGCACATTTCCCGGAAATCATACACGCACACATACACATACACACATACACATACGCAC | 10.8
CGCGCACTCTGTCGTTGCGCACATACGCACACATACACATACACACATACACATACGCAC | 10.9
GCATACGGCTGACGTTAGCCACATACGCACACATACACATACACACATACACATACGCAC | 10.8
GCATACGGCTGACGACAGCCACATACGCACACATACACATACACACATACACATACGCAC | 10.9
GCGCACAATTCCCGTAAATCATACACGCACACATACACATACACACATACACATACGCAC | 10.8
GCATACGGCTGACGTCACCCACATACGCACACATACACATACACACATACACATACGCAC | 10.9
GCATACGGATGACGTCAGCCACATACGCACACATACACATACACACATACACATACGCAC | 10.8
